About 11,000 (3.1%) of roughly 360,000 compounds were called active. The shares of active, inactive and inconclusive entries below differ from those in the screen. The call rests on the fitted dose curve; in most records, active means well fitted inhibition curve with a large enough effect; inconclusive means small, poorly fitted or top-dose-only effect; inactive means no such curve, though single readings can be large or run the other way. Potencies of inconclusive entries are left out as doubtful fits.
The compounds below were run against Schistosoma mansoni thioredoxin glutathione reductase (TGR) (UniProt Q962Y6) (assay: qHTS Assay for the Inhibitors of Schistosoma Mansoni Peroxiredoxins). Conditions: purified TGR, DTNB reduction, TNB absorbance 405 nm; series mostly up to 114 µM.
Summary of the method: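 TGR 20 nM + NADPH 100 uM (dispensed conc.), cpd preinc 15 min RT; start with NADPH (500 uM addition) then DTNB (15 mM addition). Kinetic TNB absorbance, 405 nm filter. Four-parameter Hill fit across titration.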
With `N[C@@H](Cc1c[nH]c2ccccc12)C(=O)O` the Potency was active: 14.1 µM. `Cc1ccc(CN2CCN(Cc3cccn3-c3ccccn3)CC2CCO)o1` (configuration not stated) was tested, and the Potency was inconclusive [inhibitor, partial curve]. With `C=CCn1c(SC/C=C/c2ccccc2)nnc1-c1sc(N)nc1C` the Potency was inconclusive [inhibitor, partial curve]. With `O=C(NCc1ccccn1)c1cccc(NS(=O)(=O)c2ccccc2)c1` the Potency was inconclusive [inhibitor, single point]. In the case of `O=C(CCCSc1ccccc1)Nc1nc(-c2ccco2)c(-c2ccco2)s1`, the Potency was inconclusive [inhibitor, partial curve]. With `O=C(N/N=C/c1ccc(F)cc1)c1cc(-c2ccco2)nc2ccccc12` the Potency was active: 11.2 µM. With `O=C(NC1CCCCC1)Oc1cc2oc(=O)sc2cc1Cl` the Potency was inconclusive [inhibitor, single point]. `Cn1c(CC(=O)Nc2ccc(Cl)cc2)nnc1SCC(=O)N1CCOCC1` was tested, and the Potency was inconclusive [inhibitor, full curve]. For `Cc1cc(Br)c(NC(=O)CCl)c(Br)c1`, the Potency was active: 31.6 µM. With `CN(C)CCCn1c(N)c(C#N)c2nc(C#N)c(C#N)nc21` the Potency was active: 20 µM. `CC1N(C)c2cccc3cccc(c23)N1C` was tested, and the Potency was inconclusive [inhibitor, full curve]. With `Cc1ccc(C)c(NC(=O)CCC(=O)N/N=C/c2ccc[nH]2)c1` the Potency was inconclusive [inhibitor, partial curve]. `Fc1ccc(N2CCN(C3=Nc4cccc5cccc3c45)CC2)cc1` was tested, and the Potency was “inactive”. For `Cc1cccc(N2CCN(C(=O)CCNS(=O)(=O)c3ccc4c(c3)CCC(=O)N4)CC2)c1C`, the Potency was “inactive”. `Cc1nn(-c2ccc(N3CCCC3)nn2)c(C)c1CCC(=O)N1CCN(c2ccccc2)CC1` was tested, and the Potency was “inactive”. With `CCCCN(CC)Cc1ccc(CNC(=S)Nc2c(C)cc(C)cc2C)o1` the Potency was inconclusive [inhibitor, partial curve]. In the case of `O=C(c1cccc(S(=O)(=O)N2CCOCC2)c1)N1CCCc2ccccc21`, the Potency was inconclusive [inhibitor, single point]. In the case of `O=C(N/N=C/c1ccc([N+](=O)[O-])o1)C1CCCC1`, the Potency was inconclusive [inhibitor, partial curve]. With `CC(=O)N1CCN(c2ccc(NCc3ccc4c(c3)OCO4)cc2)CC1` the Potency was inconclusive [inhibitor, partial curve, poor fit]. With `O=C(O)c1ccc2cccnc2c1O` the Potency was inconclusive [inhibitor, single point]. For `CCC(CC)C(=O)c1c[nH]c(C(=O)NCc2ccccc2)c1`, the Potency was inconclusive [inhibitor, single point]. For `Cc1noc2ncnc(Sc3ccc(Cl)cc3)c12`, the Potency was inconclusive [inhibitor, partial curve]. `Cc1cccc(NS(=O)(=O)c2cc(C(=O)N3CCCCCC3)ccc2C)c1` was tested, and the Potency was “inactive”. In the case of `Cc1cc2n(n1)SC(Nc1ccccc1)N2` (configuration not stated), the Potency was inconclusive [inhibitor, partial curve]. In the case of `Cc1ccccc1OCCn1c(C)nc2ccccc21`, the Potency was “inactive”. For `COc1ccc(N(CC(=O)NCc2ccc(Cl)cc2)S(=O)(=O)c2ccccc2[N+](=O)[O-])c(OC)c1`, the Potency was “inactive”. For `O=C(c1ccc(CS(=O)Cc2ccc(Cl)cc2)o1)N1CCN(c2ccccc2F)CC1` (configuration not stated), the Potency was inconclusive [inhibitor, partial curve]. For `O=C(CSCc1ccco1)c1cccs1`, the Potency was inconclusive [inhibitor, single point]. In the case of `COc1ccc(-c2nc(-c3ccc(Br)o3)no2)cc1OC`, the Potency was inconclusive [inhibitor, partial curve]. With `O=C(NC(=S)Nc1ccc(N2CCCCC2)cc1)c1ccco1` the Potency was active: 15.8 µM. `CCCCn1c(SCC(=O)NC(C)CC)nc2ccc(N3CCOCC3)cc2c1=O` (configuration not stated) was tested, and the Potency was inconclusive [inhibitor, partial curve]. `CN(Cc1cccnc1)C(=O)c1ccc2nc(Cc3ccccc3F)oc2c1` was tested, and the Potency was “inactive”. For `CC(=O)Nc1ccc(NCC(O)COc2ccccc2)cc1` (configuration not stated), the Potency was “inactive”. For `COc1cccc(NC(=O)c2cccc(OC)c2OC)c1`, the Potency was “inactive”. With `Cc1cc(C)c(S(=O)(=O)/N=C2/C=C(SCC(=O)O)C(=O)c3ccccc32)cc1C` the Potency was active: 3.55 µM. For `COCC(C)NC(=O)CCSc1nc(-c2ccc(OC)cc2)cc(C(F)(F)F)n1` (configuration not stated), the Potency was inconclusive [inhibitor, single point]. For `C=CCN(CC=C)S(=O)(=O)c1ccc(NC(=S)NC(=O)/C=C/c2ccccc2)cc1`, the Potency was “inactive”. With `O=C(COC(=O)c1cc(-c2ccc(Cl)s2)nc2ccccc12)NCc1ccco1` the Potency was active: 7.94 µM. For `Cc1cc(C(=O)COC(=O)CC2Sc3ccccc3NC2=O)c(C)n1-c1ccc2c(c1)OCO2` (configuration not stated), the Potency was “inactive”. For `COc1ccc(-c2cc(=O)c3cc(C)ccc3[nH]2)cc1`, the Potency was “inactive”. With `Cc1ccc(NC(=O)CSc2nnc(-c3ccco3)c(-c3ccco3)n2)cc1` the Potency was inconclusive [inhibitor, full curve]. `CC1=CC(=O)C=C(C)C1=NOC(=O)c1cccc([N+](=O)[O-])c1` was tested, and the Potency was inconclusive [inhibitor, full curve]. For `O=C1/C(=C\c2ccco2)SC(=S)N1C1CCCCC1`, the Potency was active: 39.8 µM. In the case of `Cc1nn(-c2ccccn2)c2c1-c1nc(N3CCOCC3)ncc1CC2`, the Potency was inconclusive [inhibitor, partial curve]. In the case of `O=C1NC(=O)c2c(NC(=O)C3CCCO3)cccc21` (configuration not stated), the Potency was inconclusive [inhibitor, single point]. With `CC(C)=NNc1nc(-c2ccc(N3C(=O)CCC3=O)cc2)cs1` the Potency was inconclusive [inhibitor, full curve, poor fit]. `CCOC(=O)c1c(NC(=O)CSc2ncccn2)sc2c1CC(C)(C)NC2(C)C` was tested, and the Potency was “inactive”. With `CCOC(=O)Cc1csc(SCC(=O)Nc2sc3c(c2C(N)=O)CCC3)n1` the Potency was inconclusive [inhibitor, partial curve]. In the case of `CC(=O)Nc1ccc(S(=O)(=O)NCCc2csc(-c3cccnc3)n2)cc1`, the Potency was inconclusive [inhibitor, partial curve]. `CCn1ccnc1C(O)c1ccc(N(C)C)cc1` (configuration not stated) was tested, and the Potency was active: 10 µM. `C=C(C)Cn1c(=O)c2c(nc3n2CCN3c2cccc(Cl)c2C)n(C)c1=O` was tested, and the Potency was “inactive”. With `CC(C)CN(C(=O)CN1C(=O)C2CCCCC2C1=O)c1c(N)n(Cc2ccccc2)c(=O)[nH]c1=O` (configuration not stated) the Potency was inconclusive [inhibitor, partial curve, poor fit]. In the case of `COc1ccc(NS(=O)(=O)c2cccc(C(=O)NCC(c3ccco3)N3CCCC3)c2)cc1` (configuration not stated), the Potency was inconclusive [inhibitor, partial curve]. With `CC(C)c1ccc(S(=O)(=O)/N=C2/C=CC(=O)c3ccccc32)cc1` the Potency was active: 8.91 µM. `O=C(CCS(=O)(=O)c1cccs1)Nc1ccc(C(=O)Nc2ccccc2F)cc1` was tested, and the Potency was “inactive”. `COc1ccccc1CC(=O)N(CCC#N)CCC#N` was tested, and the Potency was “inactive”. With `O=C(CSc1ncn[nH]1)N1N=C(c2ccc(Cl)cc2)CC1c1ccco1` (configuration not stated) the Potency was inconclusive [inhibitor, partial curve]. With `CCOC(=O)C1=C(C)NC(=O)NC1c1ccc([N+](=O)[O-])o1` (configuration not stated) the Potency was active: 39.8 µM. For `COC(CNC(=O)c1ccc2c3c(onc13)-c1ccccc1C2=O)OC`, the Potency was active: 12.6 µM. `CCOC(=O)C1CCCCN1Cc1cn(C)nc1-c1ccccc1F` (configuration not stated) was tested, and the Potency was inconclusive [inhibitor, single point]. For `Cc1ccccc1CN(C)C(C)C(=O)NCc1ccccc1` (configuration not stated), the Potency was inconclusive [inhibitor, single point]. `CC(C)N(C(=O)CSc1nnc(-c2cc3ccccc3cc2O)n1Cc1ccco1)C(C)C` was tested, and the Potency was inconclusive [inhibitor, partial curve]. `CCOc1ccccc1CNS(=O)(=O)c1ccc2[nH]c(=O)ccc2c1` was tested, and the Potency was “inactive”. `CC(C)(C)C(=O)C(Cl)C(=O)Nc1ccccc1` (configuration not stated) was tested, and the Potency was active: 22.4 µM. With `COc1ccc(CCC(=O)NC(C)c2ccccc2)cc1OC` (configuration not stated) the Potency was “inactive”. `Cc1nc(SCC(=O)NCc2ccco2)nc(C)c1C` was tested, and the Potency was active: 22.4 µM. For `CCOc1ccc(C2C(C(=O)c3ccco3)=C(O)C(=O)N2CCN2CCOCC2)cc1OCC` (configuration not stated), the Potency was inconclusive [inhibitor, partial curve]. With `c1cc(OCCCN2CCCCC2)ccc1CN1CCCCC1` the Potency was “inactive”. `NC(=O)Cc1ncc(C(F)(F)F)cc1Cl` was tested, and the Potency was “inactive”. In the case of `CCOC(=O)C1(Cc2ccccc2C)CCCN(C(=O)COC)C1` (configuration not stated), the Potency was inconclusive [inhibitor, full curve, poor fit]. With `O=C(O)C(=O)Cc1c[nH]c2ccccc12` the Potency was active: 44.7 µM. For `COc1cc(OC)c(C(=O)NCc2ccco2)cc1OC`, the Potency was inconclusive [inhibitor, partial curve]. For `Cc1ccc(-c2nc(CS(=O)CC(=O)N3CCC4(CC3)OCCO4)c(C)o2)cc1` (configuration not stated), the Potency was active: 44.7 µM. With `COCCNC(=O)c1ccc(CS(=O)(=O)c2cccc(C(F)(F)F)c2)o1` the Potency was inconclusive [inhibitor, partial curve]. With `Cc1ccccc1Nc1c(-c2ccccn2)nc2c(C)cccn12` the Potency was “inactive”. `O=C(CCl)N1c2ccccc2OCC1c1ccccc1` (configuration not stated) was tested, and the Potency was active: 3.16 µM. With `COc1cccc(/C=C/c2[nH]c(=O)[nH]c(=O)c2[N+](=O)[O-])c1O` the Potency was active: 35.5 µM.
Further: nearly all actives have a fitted effect of over 60% in size.
Potency means the concentration at half of the fitted maximal effect; tags describe the fitted curve by direction and shape.
